# Measured values from paper PMC4336329 (PLoS ONE, 2015).
# The whole screen tested about 310,000 compounds, of which about 2,200 (0.71%) showed an effect of 50% or more. Effects have a minus sign here. The list shows a part of the results.
# Target: human ether-à-go-go-related gene (hERG) potassium channel (human, UniProt Q12809)
# Assay: primary screen, population patch clamp on CHO cells stably expressing hERG
# Sequence of human ether-à-go-go-related gene (hERG) potassium channel (Q12809 whole entry, looked up): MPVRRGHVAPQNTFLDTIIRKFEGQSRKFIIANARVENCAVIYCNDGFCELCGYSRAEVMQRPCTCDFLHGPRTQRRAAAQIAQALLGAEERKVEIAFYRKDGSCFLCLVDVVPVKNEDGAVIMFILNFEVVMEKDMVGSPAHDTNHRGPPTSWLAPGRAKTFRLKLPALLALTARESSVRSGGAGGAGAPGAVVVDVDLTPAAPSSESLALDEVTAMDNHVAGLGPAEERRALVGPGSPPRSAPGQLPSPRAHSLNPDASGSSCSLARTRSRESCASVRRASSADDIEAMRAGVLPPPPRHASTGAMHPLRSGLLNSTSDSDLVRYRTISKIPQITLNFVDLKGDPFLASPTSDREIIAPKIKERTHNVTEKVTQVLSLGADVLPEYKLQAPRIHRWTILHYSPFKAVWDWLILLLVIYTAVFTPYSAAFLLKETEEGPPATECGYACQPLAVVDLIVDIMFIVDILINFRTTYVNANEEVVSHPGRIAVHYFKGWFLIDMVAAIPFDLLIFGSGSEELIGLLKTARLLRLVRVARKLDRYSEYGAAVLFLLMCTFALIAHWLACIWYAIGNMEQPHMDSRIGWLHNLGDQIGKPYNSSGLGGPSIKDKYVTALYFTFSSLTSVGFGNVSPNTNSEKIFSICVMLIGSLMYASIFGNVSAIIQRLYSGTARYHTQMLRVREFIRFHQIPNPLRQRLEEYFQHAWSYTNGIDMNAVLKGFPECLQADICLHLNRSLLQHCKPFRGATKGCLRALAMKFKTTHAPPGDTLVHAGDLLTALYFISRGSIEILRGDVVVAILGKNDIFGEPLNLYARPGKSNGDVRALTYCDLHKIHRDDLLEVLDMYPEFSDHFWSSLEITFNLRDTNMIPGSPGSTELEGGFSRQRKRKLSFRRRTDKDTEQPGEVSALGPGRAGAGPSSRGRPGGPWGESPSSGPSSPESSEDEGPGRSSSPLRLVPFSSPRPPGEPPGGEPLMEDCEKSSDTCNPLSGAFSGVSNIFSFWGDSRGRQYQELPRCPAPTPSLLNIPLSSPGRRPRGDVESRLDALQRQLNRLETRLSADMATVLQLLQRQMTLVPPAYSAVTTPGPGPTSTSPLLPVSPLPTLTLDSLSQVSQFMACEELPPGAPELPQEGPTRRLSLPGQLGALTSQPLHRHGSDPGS
row,SMILES,"hERG current change (%, negative = inhibition) at 1uM"
1,COc1ccccc1/C=C/C=N/N1CCN(Cc2ccccc2)CC1,8.51%
2,COc1cc2c(cc1OC)[C@H](C)N(C(=O)COc1ccccc1)CC2,7.65%
3,CCOC(=O)c1ccccc1NC1c2ccccc2C(=O)N1c1ccc(C)cn1 (centres unmarked),10.3%
4,Cc1nc2ccccc2n1CC(=O)NC1CCCCCC1,-6.18%
5,Cc1sc(N)c(C(=O)c2ccccc2)c1C,8.07%
6,CCC(CC)C(=O)Nc1nnc(S(=O)(=O)N2c3ccccc3CC2C)s1 (centres unmarked),6.99%
7,Cc1cc(OCC(=O)NC2CCN(Cc3ccccc3)CC2)c2c(C)cc(=O)oc2c1,-4.74%
8,COCCNC(=O)Cn1cnc2sc(C)c(S(=O)(=O)N3CCN(c4ccccc4OC)CC3)c2c1=O,11.3%
9,CCNC(=O)NS(=O)(=O)c1cnccc1Nc1cccc(Cl)c1,16.2%
10,N#Cc1cc2cc3c(cc2nc1N1CCOCC1)OCO3,9.18%
11,CCC(=NCCO)c1c(O)n(-c2ccc(Cl)cc2)c(=O)[nH]c1=O,19.4%
12,O=[N+]([O-])c1cnccc1Nc1ccccc1,10.6%
13,COc1ccccc1N1CCN(c2nc3ccccn3c(=O)c2C=O)CC1,7.81%
14,O=C(NCCc1ccccc1)C1CCN(S(=O)(=O)N2CCCC2)CC1,14.9%
15,CSc1nc(-c2ccc(N(C)C)cc2)c(C#N)c(=O)n1C,6.38%
16,CCOc1cc(OCC)cc(C(=O)NCCCN2CCOCC2)c1,10.3%
17,CC(=O)N1CCN(c2cc3c(cc2F)c(=O)c(C(=O)O)cn3C2CC2)CC1,5.39%
18,COc1ccc(CNc2oc(Cc3cccc4ccccc34)nc2C#N)cc1,9.94%
19,COc1ccccc1-c1nnc(NC(=O)c2ccc(S(=O)(=O)N(C)C)cc2)o1,-2%
20,O=C(CSc1nnc(-c2cccnc2)o1)Oc1ccccc1,9.45%
21,COc1ccccc1CNC(=O)c1nccnc1CO,12.8%
22,N#CC1=C2SCC(O)(c3ccccc3)N2C(=O)CC1c1ccccc1F (centres unmarked),15.4%
23,COCCC1CCCCN1Cc1cn(-c2ccccc2)nc1-c1ccc2c(c1)OCO2 (centres unmarked),3.35%

row,SMILES,"hERG current change (%, negative = inhibition) at 1uM"
1,CCc1cc(CNC(=O)CCc2nnc(CCCc3ccccc3)o2)on1,-10%
2,CS(=O)(=O)c1ccc2c(c1)sc1nc(=O)c(/C=C3/C=CC(=O)C(O)=C3)c(N)n12,13%
3,CC(C)c1ccc(-c2nn(-c3ccccc3)cc2C2C(C#N)=C(N)OC3=C2C(=O)CC(C)(C)C3)cc1 (centres unmarked),4.84%
4,CC(=O)N1CC[n+]2c(-c3ccc(Cl)cc3Cl)csc21.[Br-],5.3%
5,COc1cccc(-c2nc(N3CCN(c4ccccc4)CC3)c3ccccc3n2)c1O,7.23%
6,CC(=O)Nc1ccc(SC[C@H](Cc2ccccc2)N2CCN(CC(C)C)CCC2=O)cc1,-2.78%
7,C#CCOCCOCCOCCNc1nc(N2CCOCC2)nc(N2CCN(C(=O)[C@H](CCCCN)n3cc([C@@H](N)CC(C)C)nn3)CC2)n1.Cl,12.2%
8,COc1ccc2[nH]c(C)c(CCN3C(=O)C4C5C=CC(C5)C4C3=O)c2c1 (centres unmarked),1.96%
9,COc1ccccc1N(CC(=O)NCC1CCCO1)C(=O)CNS(=O)(=O)c1ccc(Cl)cc1 (centres unmarked),19.2%
10,Cc1nc(NC(=O)/C=C/c2ccccc2)sc1C(=O)Nc1ccccc1,17.8%
11,CCc1ccc(NC(=S)N(CCCN2CCOCC2)Cc2ccccn2)cc1,-15.3%
12,O=C(c1cc(F)ccc1F)C1CCCN(Cc2cccc(Cl)c2)C1 (centres unmarked),8.46%
13,CC(C)(C)C(=O)NC(=S)Nc1ccccc1F,-0.0863%
14,O=S(=O)(Cc1nnnn1-c1ccc(Br)cc1)c1ccc(F)cc1,3.61%
15,CSCCC(NC=C1C(=O)OC(C)(C)OC1=O)C(=O)O (centres unmarked),14.6%
16,Cc1ccc(N2C(=O)CS(=O)(=O)CC2=O)cc1,18.6%
17,COc1ccc(CCNC(=O)Cc2cccc(C(F)(F)F)c2)cc1OC,8.45%
18,O=C1CC(c2ccccc2)Cc2nc3ncnn3cc21 (centres unmarked),9.74%
19,CC(=O)N(c1ccccc1)C1CC(C)N(C(=O)c2ccccc2)c2ccccc21 (centres unmarked),10.2%
20,CC(=O)Oc1ccc(C(=O)c2ccccc2)c(OC(C)=O)c1,2.13%
21,Nc1ncnc(Nc2cc(C(F)(F)F)cc(C(F)(F)F)c2)n1,9.05%
22,C=C1CCN(C(C(=O)OC)C(C)C)S(=O)(=O)c2ccccc21 (centres unmarked),16.3%
23,FC(F)(F)c1nc2ncc(Cl)cc2[nH]1,0.811%

row,SMILES,"hERG current change (%, negative = inhibition) at 1uM"
1,COc1ccc(OC)c(CNn2c(-c3cccc(C)c3)nc3ccccc3c2=O)c1,14.7%
2,COc1ccc(CCNC(=O)c2cc3ccccn3n2)c(OC)c1OC,7.21%
3,C/C(=N\NC(=O)C(O)c1ccccc1)c1ccc(C)s1 (centres unmarked),14.8%
4,Cc1cccc(NC(=S)N2CCC(NC(=O)C3CCCCC3)CC2)c1,13%
5,COc1ccc(-c2nc(C3CCCCC3)c3cc(OC)ccc3n2)cc1,13.5%
6,O=C(OC(C(=O)NC1CCCC1)c1ccccc1F)c1ccco1 (centres unmarked),7.24%
7,Oc1ccccc1Cn1c(-c2ccccc2O)nc2ccccc21,10.2%
8,C=C1c2cc3c(cc2NC(=S)N1Cc1ccccc1)OCO3,10.4%
9,CC(C)n1c(=O)[nH]c2ccccc21,7.66%
10,Cc1cccc(C(C)C)c1NC(=O)COC(=O)c1cc2ccccc2oc1=O,2.68%
11,CCn1ccnc1CN(C)Cc1nc(-c2ccc3c(c2)OCO3)no1,9.48%
12,CCOC(=O)c1csc(-c2ccc(OC)c(OC)c2)n1,12.6%
13,COc1cc(Cl)c(S(=O)(=O)NCc2ccccn2)cc1Cl,7.04%
14,O=C(NCCCN1CCCC1=O)c1ccc(NS(=O)(=O)c2cccc([N+](=O)[O-])c2)cc1,5.1%
15,O=C(N/N=C/c1ccccc1OCc1ccccc1)c1cccs1,9.54%
16,CSCCC(NC(=O)CCN1C(=O)c2ccccc2C1=O)C(=O)O (centres unmarked),10.4%
17,CCc1cc(=O)oc2cc(OC(C)=O)cc(OC(C)=O)c12,12.1%
18,COc1ccc(CNC(=O)CN(C(=O)c2ccc(CN3CCOCC3)o2)C2CCCC2)cc1,8.08%
19,CCOc1ccc(S(=O)(=O)N2CCC(C(=O)NC3CCCC3)CC2)cc1,-0.932%
20,Cc1ccc(C(=O)Nc2ccc(OCc3ccccc3)cc2)cc1[N+](=O)[O-],2%
21,CC(C)(C)NC(=O)C1CCN(C(=O)c2ccc(-c3ccccc3)cc2)CC1,-1.66%
22,COc1ccccc1-n1c(SCC(=O)O)nc2c(sc(=S)n2-c2ccc(C)c(C)c2)c1=O,15.4%
23,CCC(=O)Nc1ccc(C(=O)NNC(=O)COc2cccc(C)c2)cc1,7.07%

row,SMILES,"hERG current change (%, negative = inhibition) at 1uM"
1,N#CNC(=Nc1ccc(Cl)cc1)Oc1ccccc1,3.34%
2,COc1ccc(F)cc1C(=O)C1CCCN(C(=O)CSc2ccccn2)C1 (centres unmarked),-8.84%
3,COc1cccc(NC2=CC(=O)CC(C)(C)C2)c1,7.94%
4,COc1ccc(N(CC(=O)Nc2ccccc2C(=O)O)S(=O)(=O)c2ccc(C)c([N+](=O)[O-])c2)cc1,17.6%
5,COc1ccc(C(=O)N/N=C/c2ccc(OC)c(COc3ccccc3)c2)cc1,-13.1%
6,O=C(NCc1ccc(F)cc1F)Nc1cnccc1C(F)(F)F,14.7%
7,CCOC(=O)COc1ccc(Br)cc1C1NC(=O)NC(C)=C1C(=O)NCc1ccccc1 (centres unmarked),-4.6%
8,COCCn1c(SCC(=O)NCc2ccco2)nnc1-c1c[nH]c2ccccc12,16.6%
9,O=C(CSc1nnc2ccc(-c3ccccc3)nn12)NCC1CCCO1 (centres unmarked),3.71%
10,COc1cccc(-c2cccc(NC(=O)C3CCN(Cc4ccc(C)o4)CC3)c2)c1,-5.6%
11,COc1ccccc1C(=O)NCC(=O)OCC(=O)c1ccc(Cl)s1,16.6%
12,CC(C)n1cc(/C(N)=N/O)c(=O)n(Cc2ccccc2)c1=O,2.2%
13,CC1CCOC2(O1)C(=O)N(CN1CCN(c3cccc(Cl)c3)CC1)c1ccccc12 (centres unmarked),11.9%
14,Cc1cc(C(=O)N2CCCc3ccccc32)ccc1[N+](=O)[O-],4.58%
15,CC1(C)CN=C(Nc2ccccc2C(F)(F)F)S1,13.4%
16,CN1CCc2nc3sc(C(=O)NC(C)(C)C)c(N)c3cc2C1,14.1%
17,Cc1c(C(=O)N2CCC(n3nccc3NC(=O)C3CC3)CC2)[nH]c2ccc(Cl)cc12,-4.79%
18,CCOc1ccc(OCC)c(N=c2oc3c(C)ncc(CO)c3cc2C(N)=O)c1,6.58%
19,Cc1ccc(NC(=O)CSc2nncs2)cc1Cl,14.5%
20,N#Cc1ccc(CSc2nnc(NC(=O)c3ccc4ncsc4c3)s2)cc1,15.2%
